In PubChem BioAssay AID1347165 (National Center for Advancing Translational Sciences (NCATS), 2019):
About 5,700 (2.6%) of roughly 220,000 compounds were called active. Inconclusive results, whose numbers are uncertain, are shown with a selection of clear calls. The call rests on the fitted dose curve; in most records, active means well fitted inhibition curve with a large enough effect; inconclusive means small, poorly fitted or top-dose-only effect; inactive means no such curve, though single readings can be large or run the other way. Where the call is inconclusive, the potency comes from a doubtful curve fit.

The compounds below were run against Lysine-specific demethylase 5B (Homo sapiens) (UniProt Q9UGL1) (assay: Primary screen for KDM5B Histone Demethylases FDH-coupled qHTS). Details: FDH-coupled NADH fluorescence (FDH is formaldehyde dehydrogenase); activity change, negative = inhibition: at 57.7 µM (top of the series) unless noted.
Summary of the method: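 Coupled FDH/NAD⁺ fluorescence readout. KDM5BΔAP 200 nM final; compound titration, 10 min RT preincubation; substrate mix 12.5 µM H3K4me3, 25 µM 2-OG, 50 µM Fe(II), 100 µM ascorbate, 0.25 mM NAD⁺, 0.25 U/mL FDH; ΔRFU over 30 min.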
Further: nearly all actives have a fitted effect of over 70% in size.
Potency means the concentration at half of the fitted maximal effect; tags describe the fitted curve by direction and shape.
Wherever activity change, negative = inhibition is given: 0% is about no effect.

UniProt Q9UGL1, sequence (Q9UGL1 whole entry, looked up): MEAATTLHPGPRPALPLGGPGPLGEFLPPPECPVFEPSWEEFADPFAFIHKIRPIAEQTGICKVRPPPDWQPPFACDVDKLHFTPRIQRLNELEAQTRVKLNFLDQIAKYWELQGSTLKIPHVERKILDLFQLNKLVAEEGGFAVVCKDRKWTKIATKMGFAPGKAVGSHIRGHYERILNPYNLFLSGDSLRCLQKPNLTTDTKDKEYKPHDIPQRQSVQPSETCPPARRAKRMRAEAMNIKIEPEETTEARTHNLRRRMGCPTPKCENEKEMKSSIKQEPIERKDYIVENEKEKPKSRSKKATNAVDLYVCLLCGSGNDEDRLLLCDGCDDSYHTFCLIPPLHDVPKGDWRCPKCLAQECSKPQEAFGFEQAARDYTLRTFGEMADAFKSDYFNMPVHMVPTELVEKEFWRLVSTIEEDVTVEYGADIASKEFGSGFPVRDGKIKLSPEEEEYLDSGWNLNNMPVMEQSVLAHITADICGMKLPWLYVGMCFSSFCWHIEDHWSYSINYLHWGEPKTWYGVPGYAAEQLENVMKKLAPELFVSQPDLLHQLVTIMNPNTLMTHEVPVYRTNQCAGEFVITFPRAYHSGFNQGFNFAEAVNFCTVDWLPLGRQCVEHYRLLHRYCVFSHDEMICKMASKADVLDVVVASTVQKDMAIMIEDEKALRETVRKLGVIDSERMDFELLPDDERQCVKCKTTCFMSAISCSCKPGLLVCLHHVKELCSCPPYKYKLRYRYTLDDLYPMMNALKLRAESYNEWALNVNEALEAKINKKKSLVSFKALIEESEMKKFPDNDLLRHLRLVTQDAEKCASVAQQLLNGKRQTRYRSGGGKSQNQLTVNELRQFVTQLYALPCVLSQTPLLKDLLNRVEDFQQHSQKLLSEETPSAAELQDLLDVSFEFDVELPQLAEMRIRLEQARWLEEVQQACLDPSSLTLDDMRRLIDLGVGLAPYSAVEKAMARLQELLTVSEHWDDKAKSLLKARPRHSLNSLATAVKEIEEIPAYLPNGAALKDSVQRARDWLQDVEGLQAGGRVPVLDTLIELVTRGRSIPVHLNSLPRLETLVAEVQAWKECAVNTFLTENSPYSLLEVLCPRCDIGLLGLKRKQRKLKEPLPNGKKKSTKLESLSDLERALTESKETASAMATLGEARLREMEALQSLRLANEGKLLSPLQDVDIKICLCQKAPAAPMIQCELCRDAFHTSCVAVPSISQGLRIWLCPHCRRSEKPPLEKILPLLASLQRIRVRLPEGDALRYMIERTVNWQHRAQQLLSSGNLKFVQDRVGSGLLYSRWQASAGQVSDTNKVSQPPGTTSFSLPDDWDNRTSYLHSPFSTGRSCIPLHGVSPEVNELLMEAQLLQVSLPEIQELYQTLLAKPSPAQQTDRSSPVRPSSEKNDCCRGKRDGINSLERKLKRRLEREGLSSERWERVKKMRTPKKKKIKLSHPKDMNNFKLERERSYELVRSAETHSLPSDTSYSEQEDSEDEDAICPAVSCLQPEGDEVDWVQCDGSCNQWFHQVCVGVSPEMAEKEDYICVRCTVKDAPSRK

| SMILES | Potency | activity change, negative = inhibition |
| --- | --- | --- |
| COc1ccc(-c2nnc3ccc(N(C)Cc4ccccc4)nn23)nc1 | inconclusive: 63.1 µM [inhibitor, partial curve, poor fit] |  |
| CC1(C(=O)NCc2cccnc2)CN(Cc2ccccc2)Cc2ccc(N3CCOCC3)nc21 (centres undefined) | active: 25.1 µM |  |
| COc1cc(F)ccc1-c1ccc2c(n1)c(=O)ncn2CC1CC1 | inconclusive: 31.6 µM [inhibitor, partial curve, poor fit] |  |
| CCOc1cc(C2C(C(=O)c3ccco3)=C(O)C(=O)N2CC2CCCO2)ccc1O (centres undefined) | inconclusive: 20 µM [inhibitor, single point] |  |
| O=C(CSc1ccc2nc(-c3ccccc3)cn2n1)Nc1ccccc1 | inconclusive: 7.94 µM [inhibitor, partial curve, poor fit] |  |
| O=C(NCCCN1CCCC1)c1cn2ccnc(-c3ccccc3)c2n1 | inconclusive: 17.8 µM [inhibitor, partial curve, poor fit] |  |
| Cc1cc(NC(=O)COc2c(C)cc(Cl)cc2Cl)ccc1NC(=O)c1ccco1 | inactive |  |
| COc1ccc(CNC(=O)c2cc(-c3ccc(OC)c(OC)c3)nc3n[nH]c(-c4ccc(C)cc4)c23)cc1 | inconclusive: 25.1 µM [inhibitor, partial curve, poor fit] |  |
| COc1ccc2cc1Nc1ccc(cc1)C[C@H](NCc1ccc(C)o1)C(=O)N(C)[C@H](C(=O)NCCC(C)C)C2 | inactive |  |
| CC(Sc1nc(CN2CCOCC2)nc2ccccc12)C(=O)NC1CCCCCC1 (centres undefined) | inactive |  |
| COc1ccc(-c2cc(C(F)(F)F)nc(SCCC(=O)Nc3ccc(F)cc3F)n2)cc1 | inconclusive: 8.91 µM [inhibitor, partial curve, poor fit] |  |
| Cn1nc(C(=O)Nc2ccccc2C(=O)NC2CC2)c2ccccc2c1=O | inactive |  |
| CCOc1cccc2c1Oc1nc(-c3cc(OC)ccc3OC)[nH]c(=O)c1C2 | inconclusive: 25.1 µM [inhibitor, single point] |  |
| COCCNC(=O)N1CCN(c2cnccn2)CC(C(=O)O)C1 (centres undefined) | inconclusive: 31.6 µM [inhibitor, partial curve, poor fit] |  |
| O=C1Nc2ccccc2CN(CC2CCCCC2)C12CCNCC2 | inconclusive: 39.8 µM [inhibitor, partial curve] |  |
| Cc1ccc(CSc2nccc(-c3c(C)nc4ccccn34)n2)cc1 | inconclusive: 35.5 µM [inhibitor, partial curve, poor fit] |  |
| COc1ccccc1-c1nc2nccc(-c3ccsc3)n2n1 | inconclusive: 14.1 µM [inhibitor, partial curve] |  |
| Cc1ccc(F)c(C(CC(=O)NCc2ccco2)c2c[nH]c3ccc([N+](=O)[O-])cc23)c1 (centres undefined) | inactive |  |
| Cc1csc(NC(=O)CSc2nc3nc(C)cc(C)n3n2)n1 | inconclusive: 44.7 µM [inhibitor, partial curve, poor fit] |  |
| CC1CCN(S(=O)(=O)c2ccc3nc(Nc4cccc(F)c4)ccc3c2)CC1 | inconclusive: 7.08 µM [inhibitor, partial curve, poor fit] |  |
| COc1ccc2[nH]c3c(c2c1)CCN(C)C31CCN(C(=O)c2cn(C)cn2)CC1 | active: 25.1 µM |  |
| CCOc1ccc(NC(=O)CSc2nc3ccccc3nc2N2CCOCC2)cc1 | inconclusive: 39.8 µM [inhibitor, single point] |  |

| SMILES | Potency | activity change, negative = inhibition |
| --- | --- | --- |
| O=C(/C=C/c1ccccc1)OCC1C(COC(=O)/C=C/c2ccccc2)C1(Cl)Cl (centres undefined) | inactive |  |
| C#Cc1cccc(NC(=O)c2nccnc2N)c1 | inconclusive: 39.8 µM [inhibitor, single point] |  |
| Cc1cc(=O)oc2cc(OCC(=O)NC3CC(C)(C)NC(C)(C)C3)ccc12 | inconclusive: 25.1 µM [inhibitor, partial curve, poor fit] |  |
| COc1ccc(CNC(=O)c2cc3cccc4c3n2CC(C)S4)cc1 (centres undefined) | inconclusive: 35.5 µM [inhibitor, partial curve, poor fit] |  |
| O=c1c(N2CCN(c3ccc(F)cc3)CC2)csc2ccc(F)cc12 | inconclusive: 20 µM [inhibitor, partial curve, poor fit] |  |
| CCOc1cc(=O)n2c(c1C(=O)NCc1ccc(F)cc1F)CCCC2 | inactive |  |
| COc1ccc(S(=O)(=O)NC(C)(C)CO)cc1-c1nnc2c3ccccc3c(C)nn12 | inconclusive: 31.6 µM [inhibitor, single point] |  |
| CC(C)CC(=O)Nc1cccc(-c2cn3cccnc3n2)c1 | inconclusive: 31.6 µM [inhibitor, partial curve, poor fit] |  |
| CN(C)c1ccc(C(=O)N2CCN3C(=O)c4cc(Br)ccc4NC(=O)[C@H]3C2)cc1 | inactive |  |
| CCCn1c(=O)c2sccc2n2c(CCCC(=O)N3CCN(c4ccc(OC)cc4)CC3)nnc12 |  | inconclusive: -39.9% [inhibitor] |
| O=C1COc2ccc(-c3cc(F)cc(F)c3)nc2CN1Cc1ccccc1 | active: 31.6 µM |  |
| Cc1ccccc1-c1cnc2[nH]cc(CC(=O)N3CCOCC3)c2c1 | active: 35.5 µM |  |
| O=C(C1CCc2nnc(-c3ccc(Cl)nc3)n21)N1CCN(c2ncccn2)CC1 (centres undefined) | inconclusive: 70.8 µM [inhibitor, partial curve] |  |
| C[C@@H]1ON(C)[C@H]2C[C@H]3c4[nH]c5c(-c6ccc7c(c6)OCO7)cccc5c4CCN3C[C@@H]12 | inconclusive: 25.1 µM [inhibitor, partial curve, poor fit] |  |
| Cc1ccc(S(=O)(=O)N2CCN(CC(=O)NC(C)c3cccs3)CC2)cc1 (centres undefined) | inconclusive: 25.1 µM [inhibitor, single point] |  |
| Cc1cccc(N2CCN(c3ccc4cc(S(=O)(=O)N5CCC(C)CC5)ccc4n3)CC2C)c1 (centres undefined) |  | inconclusive: -31.8% [inhibitor] |
| CN1CCc2c(sc3c2C(=O)NC(/C=C\c2ccccc2)N3)C1 (centres undefined) | inconclusive: 10 µM [inhibitor, partial curve, poor fit] |  |
| CCCCC(=O)N1CCC2(CC1)SCC(=O)N2c1ccc(OC)cc1 | inconclusive: 31.6 µM [inhibitor, partial curve, poor fit] |  |
| O=C(NCc1ccncc1)c1ccc2c(c1)n(Cc1ccc(F)cc1)c(=O)c1ccnn12 | inconclusive: 31.6 µM [inhibitor, partial curve, poor fit] |  |
| COC[C@@H]1CN(C(=O)c2cc(C)oc2C)C[C@H]1c1nc(C2CC2)no1 | inconclusive: 22.4 µM [inhibitor, partial curve, poor fit] |  |
| Cc1ccc(-c2cnc(C3CC3)o2)cc1S(=O)(=O)Nc1ccc(F)cc1Cl | inconclusive: 35.5 µM [inhibitor, single point] |  |
| Cc1cccc(OCCc2noc(C3CCCCN3)n2)c1 (centres undefined) | inactive |  |

| SMILES | Potency | activity change, negative = inhibition |
| --- | --- | --- |
| CCc1ccc2n(-c3ccc(OC)cc3)c([S-])c(C(=O)Nc3cc(C)cc(C)c3)[n+]2c1 | inconclusive: 39.8 µM [inhibitor, partial curve, poor fit] |  |
| CCc1ccc(C(C)NC(=O)Cn2nnn(-c3ccccc3)c2=O)cc1 (centres undefined) | inactive |  |
| Cc1nc(NC(=O)CNC(=O)c2ccoc2)sc1C | inconclusive: 3.55 µM [inhibitor, partial curve, poor fit] |  |
| COc1ccc(F)cc1Nc1cnc2ccc(N(C)Cc3cccnc3)nn12 | active: 31.6 µM |  |
| Cc1ccc(NC(=O)CCCn2c(=O)c3cccn3c3cccnc32)c(C)c1 | inconclusive: 5.62 µM [inhibitor, partial curve, poor fit] |  |
| CS(=O)(=O)c1ccc(CN2C[C@H](O)C[C@H]2c2nc(-c3cccnc3)no2)cc1 | inconclusive: 31.6 µM [inhibitor, single point] |  |
| COc1cccc(CNc2sc3c(c2C(=O)Nc2ccc(OC)cc2OC)CCC3)c1 | inconclusive: 25.1 µM [inhibitor, single point] |  |
| CCc1ccc2c(c1)-c1ccccc1S(=O)(=O)N2CC(=O)Nc1cccc(Cl)c1C | inactive |  |
| COc1ccc(-c2cc3nc4ccccc4n3c(N)c2C#N)cc1 | inconclusive: 14.1 µM [inhibitor, partial curve, poor fit] |  |
| COCC(=O)N(C1CCOCC1)C1CCN(C(=O)c2ccc(F)cc2F)CC1 | inactive |  |
| COc1ccc(C(=O)NC2CCN(c3ccc(=O)n(C)n3)CC2)cn1 | inconclusive: 15.8 µM [inhibitor, partial curve] |  |
| CC(C)NC(=O)N1CCOC2(CCN(C(=O)CCCN)CC2)C1 | inconclusive: 100 µM [inhibitor, partial curve] |  |
| COc1ccc2c(CNCCc3ccco3)c(C(=O)O)n(Cc3ccc(F)cc3)c2c1 | inconclusive: 22.4 µM [inhibitor, single point] |  |
| CCn1ccnc1CNC(=O)c1cc(OC)ccc1OC1CCN(C(=O)C2CC2)CC1 | active: 28.2 µM |  |
| Cc1ccccc1N1CCN(C(=O)c2cc3cn(C4CC4)cc3s2)CC1 | inconclusive: 8.91 µM [inhibitor, partial curve] |  |
| CN(CC(=O)NC(=O)NC1CC1)Cc1cccc(C#N)c1 | inactive |  |
| CC1CCCC(NC(=O)c2ccccc2)C1C (centres undefined) | inactive |  |
| COc1cccc(C(=O)NCCc2sc(-c3cccc(C)c3)nc2C)c1 | inconclusive: 28.2 µM [inhibitor, partial curve, poor fit] |  |
| Cn1cccc1CN1CCC2(Cc3ccccc3CNC2=O)C1 (centres undefined) | inconclusive: 56.2 µM [inhibitor, partial curve] |  |
| Cc1ccc(C)c(S(=O)(=O)c2cn(Cc3ccccc3)c3cc(N4CCCC4)c(F)cc3c2=O)c1 | inconclusive: 31.6 µM [inhibitor, partial curve, poor fit] |  |
